Assay results: US20190284293A1, “COMBINATION THERAPY WITH ANTI-CD73 ANTIBODIES” (BRISTOL-MYERS SQUIBB COMPANY, priority 2016, published 2019)

Key:
[1] = Differential scanning calorimetry (DSC), thermal stability; type: physicochemical; conditions: PBS pH 7.1
Description: The thermal stability of CD73 mAbs were determined using a MicroCal Capillary DSC instrument (GE Healthcare). Antibodies were analyzed at a concentrations of 0.5-0.75 mg/ml in PBS pH 7.1. To stabilize the DSC instrument baseline and obtain a consistent thermal history, multiple scans of buffer alone in both the sample and reference cell were recorded prior to sample analysis. Sample scans contained mAb in the sample cell and PBS pH 7.1 in the reference cell. All scans were run from 10-110° C. at a scan rate of 60°/hr using a 5 minute pre-cycle thermostat period and no post-cycle thermostat period. Data (as shown in Table 15 below) were analyzed using MicroCal Origin Cap DSC analysis software. The appropriate buffer-buffer blank scans were subtracted from the sample-buffer data, and the transition midpoint temperature (Tm) values were determined by fitting the data to a non-2-state model. Tm1, Tm2 and Tm3 are the Tms for different domains in the antibodies.

CD73 in Calu6 cells = target: T1, CD73 in Calu6 cells (Homo sapiens, UniProt P21589); experiment: High-content internalization assay (2 hour fixed time); type: cell-based
T1 construct: Calu6 (CD73 endogenous expressors; human pulmonary adenocarcinoma cell line); endogenous in cells; host or cells: Calu6
T1 sequence (P21589 27-549): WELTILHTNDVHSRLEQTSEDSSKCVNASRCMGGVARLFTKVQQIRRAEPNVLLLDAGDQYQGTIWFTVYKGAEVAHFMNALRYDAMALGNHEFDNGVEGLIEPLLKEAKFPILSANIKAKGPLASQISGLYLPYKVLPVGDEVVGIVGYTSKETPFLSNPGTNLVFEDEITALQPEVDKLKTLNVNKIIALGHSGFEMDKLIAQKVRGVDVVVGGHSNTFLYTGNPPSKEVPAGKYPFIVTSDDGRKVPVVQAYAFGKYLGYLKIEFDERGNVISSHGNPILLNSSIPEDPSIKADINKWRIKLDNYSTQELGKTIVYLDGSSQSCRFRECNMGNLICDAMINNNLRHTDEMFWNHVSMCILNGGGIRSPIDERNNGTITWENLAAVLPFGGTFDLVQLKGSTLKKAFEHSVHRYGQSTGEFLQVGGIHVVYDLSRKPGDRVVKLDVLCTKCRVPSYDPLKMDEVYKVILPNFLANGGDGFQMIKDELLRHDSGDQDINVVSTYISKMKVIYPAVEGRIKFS
Description: The anti-CD73 antibodies were used to test anti-CD73 antibody dependent CD73 internalization in Calu6 cells by assessing cellular expression after 2 hours of antibody incubation. Cells (2,000 cells/well) in 20 μl of complete medium (Gibco RPMI Media 1640 with (0% heat inactivated fetal bovine serum) were plated in 384 BD Falcon plate and grown overnight at 37° C. 5% CO2 and 95% humidity. Anti-CD73 antibodies were serially diluted with PBS buffer containing 0.2% BSA, and added at 5 μl/well into the cell plate. The cells were incubated with antibodies for 2 hours at 37° C. 5% CO2 and 95% humidity, followed by washing once with PBS buffer. Formaldehyde (final 4% in PBS) was then added into cell plate at 20 ul/well, and the plate was incubated at room temperature for 10 minutes. Afterwards, all liquid was aspirated and cells were washed once with 30 ul PBS. Detection antibody (2.5 μg/well of anti-CD73 Ab CD73.10.IgG2C219S) was added at 15 μg/well into the fixed cell plate. The cells were incubated at 4° C. overnight. On the next day, the plate was washed twice with PBS buffer, followed by adding secondary antibody containing Alexa-488 goat anti human and DAPI, stained for 1 hour at room temperature. […] IC50 and Ymax were measured. […] All calculations were determined as a percentage of internalization compared to this control, which was set to 100%.

[2] = SEC-MALS, oligomeric state of CD73 mAbs; type: physicochemical
Description: The oligomeric state of CD73 mAbs were examined by size-exclusion chromatography coupled to an in-line multi-angle light scattering detector (SEC-MALS). Isocratic separations were performed on a Shodex PROTEIN KW-803 column connected to an Prominence Shimadzu UFLC in buffer containing 200 mM K2HPO4, 150 mM NaCl, pH 6.8, containing 0.02% Na azide (0.1 μm filtered) running at 0.5 mL/min. Samples were injected onto the column using a SIL-20AC Prominence Shimadzu autosampler, and data were obtained from three online detectors connected in series: a Prominence SPD-20AD diode array UV/vis spectrophotometer followed by a Wyatt miniDAWN™ TREOS Multi-Angle Light Scattering Detector then a Wyatt Optilab T-rEX Refractive Index Detector. Data (as shown in Table 15 below) were collected and analyzed using Astra (Wyatt) and Labsolutions (Shimadzu) software.

B1: 5F8: human anti-human CD73 monoclonal antibody, IgG1za, predominant light chain VK1 (antibody)
heavy: EVQLVESGGGLVQPGGSLRLSCAASGFTFSSYWMHWVRQAPGKGLVWVSRIISDGSSTGYADSVKGRFTISRDNAKNTLYLQMNSLRAEDTAVYYCAREFSSGWYFDYWGQGTLVTVSS[human IgG1 constant region cut from this listing]
light: AIQLTQSPSSLSASVGDRVTITCRASQGISSALAWYQQKPGKAPKLLIYDASSLESGVPSRFSGSGSGTDFTLTISSLQPEDFATYYCQQFSSYPRTFGQGTKVEIKRTVAAPSVFIFPPSDEQLKSGTASVVCLLNNFYPREAKVQWKVDNALQSGNSQESVTEQDSKDSTYSLSSTLTLSKADYEKHKVYACEVTHQGLSSPVTKSFNRGEC
- DSC Tm1 (° C.) [1]: 68.7 °C
- DSC Tm2 (° C.) [1]: 82.7 °C
- DSC Tonset (° C.) [1]: 59.0 °C
- internalization of bin 2 antibodies (CD73 in Calu6 cells): did not internalize significantly
- SEC % HMW [2]: 2.3%
- SEC % LMW [2]: 0.0%
- SEC % Monomer [2]: 97.7%
